The campaign covered roughly 4,800 compounds. About 410 (8.5%) showed an effect of 50% or more. Some of the results follow.
test system: Plasmodium falciparum; test: Confirmatory screen in NF54 pLDH assay, in single point, at 2uM, 72h; format: functional, Erythrocyte; conditions: timepoint 72 hour

Structure (SMILES) | % Inhibition [%]
O=C(CN1CCCC1)Nc1ccc(N2CCn3c(nc4ccccc43)C2)cc1 | 12
CCOc1ccc(NC(=O)Cn2cnc3c(-c4cccc(OC)c4)cn(C)c3c2=O)cc1 | 10
CCCn1ccnc1-c1cn(Cc2cc3ccccc3[nH]2)nn1 | 54
CCOc1ccc(-c2ccnc3c(C(=O)NCCc4c[nH]c5ccc(OC)cc45)cnn23)cc1 | -9
CC(=O)Nc1cccc(C#CCN2CCN(c3ccc(F)cc3)CC2)c1 | 13
COc1ccccc1N1CCN(C(=O)c2nnn(-c3ccccc3Cl)c2-c2cccnc2)CC1 | 1
Cc1ccnc(CNC(=O)N[C@H]2CCc3ccc(F)cc32)c1 | -12
CCn1nc(C)c(CNc2nnc(C3CCCCC3)o2)c1C | -24
Cc1ccc(CN2CCN(CC(=O)NC3CCCCC3C)C2=O)cc1 (configuration not stated) | -5
CC(C)Cn1c(C(F)(F)F)cnc1N | 13
O=C(COC[C@H]1CCCO1)Nc1ccc2[nH]c(=O)sc2c1 | 3
CCC[C@H](C)CS(=O)(=O)NCc1ccnc(OC(C)C)c1 | -10
O=C(O[C@@H](c1ccccc1)N1C(=O)C(C(F)(F)F)(C(F)(F)F)c2ccccc21)C(C(F)(F)F)C(F)(F)F | 12
COC(OC)c1ccnc2c(C#N)cnn12 | -13
COc1cc(C)cc(C)c1S(=O)(=O)N(C)Cc1nnc[nH]1 | 4
Cc1c(NC(=O)c2n[nH]cc2Cl)c(=O)n(-c2ccccc2)n1C | -18
CCOc1ccc(NC(=O)c2cnc(N(Cc3ccccc3)C(C)C)nc2N)cc1 | -12
C[C@H](NC(=O)c1nnn(C)c1C(F)(F)F)c1cscn1 | 13
CCCc1ccc(Cl)c(S(=O)(=O)Nc2nnc(C3CC3)o2)c1 | 5
Cc1ccc(N2CCN(c3c(C(=O)N4CCCCC4)cnc4ccc(F)cc34)CC2)cc1 | -26
CCO[C@H]1OCCn2c1c(Br)c(=O)n(C)c2=O | -2
Cc1c(-c2nn3c(Cc4ccc(Cl)cc4)nnc3s2)cnn1-c1ccccc1 | -12
Cc1ccc(S(=O)(=O)Nc2c(-n3cnnc3)nn(C)c2C)c(C)c1 | -1

Structure (SMILES) | % Inhibition [%]
c1ccc2[nH]c(Nc3nc4ccccc4s3)nc2c1 | 14
Cc1cccc(CN(C(=O)C2CCCC2)c2ccc(CC(=O)NCCN3CCOCC3)cc2)c1 | 7
C#CCCCCC(=O)Nc1ncccc1Cl | 9
CCCNC(=O)c1sccc1NC(=O)c1cnccn1 | 13
C[C@H]1C(=O)N(C)C[C@@H](CNS(=O)(=O)c2ccccc2)N1Cc1cccnc1 | 9
CC(C)[C@H](CNc1ncnc2ccsc12)N1CCN(C)CC1 | 7
CC(C)(C)C1CC(NC(=O)C2CC=CC2)CCO1 (configuration not stated) | -1
O=C(CN1CCN(Cc2ccc(F)cc2)C1=O)N1CCN(c2ccccc2)CC1 | 0
COc1cc(Br)ccc1C1NC(=O)C2COCCN21 (configuration not stated) | 3
CN(C)Cc1ccc(O)c(CCc2ccccc2)n1 | 25
O=C(Nc1ccsc1C(=O)N1CCCCC1)c1cnccn1 | 11
CC(CO)(CO)NCc1ccc(F)cc1F | 1
FC(F)(F)c1cccc([C@@H]2CNC3(CCCC3)CO2)c1 | -22
CCC[C@H](NC(=O)c1ccc(Cl)o1)c1nnn[nH]1 | 8
O=C1c2ccccc2C(=O)N1CCc1csc(Cn2cncn2)n1 | 10
Nc1nc(Cc2ccccc2)c(Br)c(=O)[nH]1 | 5
O=c1[nH]c2nc(N3CCN(c4ccccn4)CC3)ncc2c(=O)n1-c1ccc(F)cc1 | 2
Cc1ccc(C(=O)Nc2ccc3c(c2)OC(C)(C)C(=O)N3)cc1 | -3
COc1ccc(NC(=O)CN2N=C(C(=O)Nc3ccc(F)cc3)CCC2=O)cc1 | -1
Cc1nn(-c2ncc(C(F)(F)F)cc2Cl)c(=O)n1-c1cccc(F)c1 | 7
Cc1nc2ccccc2n1C(=O)c1sc2ccccc2c1Cl | 4
Cc1cccc(NC(=O)[C@@H](C#N)C(=O)C2CCC2)c1 | 8
O=C(CN1CCN(Cc2cccc(Cl)c2)C1=O)N1CCN(c2ccccc2)CC1 | 4

Structure (SMILES) | % Inhibition [%]
CC1(C)C2Cc3nc4c(cc3C1C2)CCC4 (configuration not stated) | 0
Cn1nc(N)c2cc(C(F)(F)F)ccc21 | 10
O=C(Nc1ccccc1)c1ccc2c(c1)C(=O)N(CCc1ccccc1)C2=O | -15
CCc1ccc(C2=Nc3cccnc3N(CC(=O)Nc3c(C)cc(C)cc3C)C(=O)C2)cc1 | 2
CC1CCC(NC(=O)C(c2ccccc2)c2ccccc2)CC1 (configuration not stated) | 8
Cc1cc(C)cc(-c2cc3nc(C)cc(N4CCC(C(=O)Nc5ccc(C)c(Cl)c5)CC4)n3n2)c1 | -12
O=C(O)c1cc2ccoc2n1Cc1ccccc1 | 7
Cc1ccc(NC(=O)Cn2c(=O)n(Cc3ccco3)c(=O)c3ccccc32)c(C)c1 | -13
COc1cccc(-c2cc3c(N4CC=C(c5ccccc5)CC4)nccn3n2)c1 | 10
O=C(CCc1nc2ccccc2[nH]1)N1CCN(c2ccccn2)CC1 | 3
CCc1sc(N(C(=O)Cc2ccccc2)c2ccc(C)cc2C)nc1-c1ccc(Cl)cc1 | 12
O=C(NC1CCCC1)N1CCN(c2nc3cccnc3n(Cc3ccccc3)c2=O)CC1 | 8
CC1(C)CCCc2sc(NC(=O)N[C@H]3CCOC4(CCC4)C3)nc21 | 1
Cc1cccc([C@H]2NCCc3sccc32)n1 | 10
Cc1cc(C(=O)Nc2cc(C)nn2C)nc(N(C)C)n1 | 8
Cc1c(C)n(CC(O)CNC(C)c2ccccc2)c2c(Cl)cccc12 (configuration not stated) | 73
C[C@@H](CC(=O)Nc1cncnc1-n1cccn1)c1ccccc1 | 10
CN(C)c1ccc(-c2nc(C(F)(F)F)cc(C(F)(F)C(F)(F)F)n2)cc1 | 5
COc1ccc(C(=O)N2CCN(c3cc(N4CCOCC4)nc(C)n3)CC2)cc1 | 4
CC(C)N1CCN(C(=O)CN2N=C(c3nc(-c4ccccc4)no3)CCC2=O)CC1 | 2
CCN1C(=O)CCN(C(=O)c2ccnn2C)CC12CCOCC2 | 3
